# The full ranking holds about 2,900 compounds; the median of “NF-kB SEAP reporter activity, fold change vs agonist alone” is about 0.99, and the highest 2% start at about 2.6. This is one part of the list.
# Columns and labels:
# [1] = system: RAW-Dual; assay: NF-kB SEAP reporter activity, fold change vs agonist alone; cytotoxicity flag (confluency mask): not cytotoxic; higher = enhanced NF-kB activity
# Outline: (§1)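 RAW-Dual macrophages (50,000 cells/well in DMEM, 384-well plates) received 50 nL of library stock by pin tool, then a PRR agonist 1 h later, and were kept at 37 °C, 5% CO2. After 20 hours, supernatant was read for IRF by QuantiLuc luminescence and for NF-κB by QuantiBlue absorbance at 620 nm. Reporter activity is fold change over agonist-alone wells. Cytotoxic wells had IncuCyte confluency below 70% of agonist controls in both mask sets.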
# [2] = system: RAW-Dual; assay: NF-kB SEAP reporter activity, fold change vs agonist alone; higher = enhanced NF-kB activity; conditions: library stock concentration (final ~1000-fold dilution): 10 mM
# Outline: as §1
# [3] = system: RAW-Dual; assay: NF-kB SEAP reporter activity, fold change vs agonist alone; cytotoxicity flag (confluency mask): cytotoxic (confluency <70% of control); higher = enhanced NF-kB activity
# Outline: as §1
# [4] = agonist: ODN 1826 (TLR9) 0.5 ug/mL
# [5] = agonist: Pam2CSK4 (TLR2/6) 0.1 ug/mL
# [6] = agonist: Pam3CSK4 (TLR2/1) 0.1 ug/mL
# [7] = cytotoxicity flag (confluency mask): not cytotoxic, agonist: Imiquimod (TLR7) […]
# [8] = cytotoxicity flag (confluency mask): not cytotoxic, agonist: MPLA (TLR4) […]
# [9] = cytotoxicity flag (confluency mask): cytotoxic (confluency <70% of control), agonist: Imiquimod (TLR7) […]
# [10] = cytotoxicity flag (confluency mask): cytotoxic (confluency <70% of control), agonist: MPLA (TLR4) […]
compound,measurement,setting,value
CCCCCC/C=C\CCCCCCCc1cccc(O)c1C(=O)O (library stock concentration (final ~1000-fold dilution): 10 mM),NF-kB SEAP reporter activity,[1]; agonist: LPS (TLR4) 0.1 ug/mL,0.988
same,NF-kB SEAP reporter activity,[1]; [4],0.984
same,NF-kB SEAP reporter activity,[1]; [5],0.671
same,NF-kB SEAP reporter activity,[1]; [6],0.914
CCCCCC/C=C\CCCCCCCc1cccc(O)c1C(=O)O,NF-kB SEAP reporter activity,[2]; [7],1.32
same,NF-kB SEAP reporter activity,[2]; [8],1.37
CCOC(=O)C(CCc1ccccc1)NC1CCc2ccccc2N(CC(=O)O)C1=O (stereo unspecified),NF-kB SEAP reporter activity,[2]; [7],0.982
same,NF-kB SEAP reporter activity,[2]; [8],1.04
CCOC(=O)C(CCc1ccccc1)NC1CCc2ccccc2N(CC(=O)O)C1=O (stereo unspecified) (library stock concentration (final ~1000-fold dilution): 10 mM),NF-kB SEAP reporter activity,[1]; agonist: LPS (TLR4) 0.1 ug/mL,1.25
same,NF-kB SEAP reporter activity,[1]; [4],1.03
same,NF-kB SEAP reporter activity,[1]; [5],1.04
same,NF-kB SEAP reporter activity,[1]; [6],1.05
CN(C)CCCN1c2ccccc2Sc2ccc(Cl)cc21.Cl (library stock concentration (final ~1000-fold dilution): 10 mM),NF-kB SEAP reporter activity,[1]; agonist: LPS (TLR4) 0.1 ug/mL,2.03
same,NF-kB SEAP reporter activity,[1]; [4],0.923
same,NF-kB SEAP reporter activity,[1]; [5],0.652
same,NF-kB SEAP reporter activity,[1]; [6],0.962
CN(C)CCCN1c2ccccc2Sc2ccc(Cl)cc21.Cl,NF-kB SEAP reporter activity,[2]; [7],0.888
same,NF-kB SEAP reporter activity,[2]; [8],0.929
O=C(C=Cc1ccc(O)cc1)c1ccc(O)cc1O (library stock concentration (final ~1000-fold dilution): 10 mM),NF-kB SEAP reporter activity,[1]; agonist: LPS (TLR4) 0.1 ug/mL,1.05
same,NF-kB SEAP reporter activity,[1]; [4],1.02
same,NF-kB SEAP reporter activity,[1]; [5],1.36
same,NF-kB SEAP reporter activity,[1]; [6],1.34
O=C(C=Cc1ccc(O)cc1)c1ccc(O)cc1O,NF-kB SEAP reporter activity,[2]; [7],1.22
same,NF-kB SEAP reporter activity,[2]; [8],1.42
CN(C)c1ccc2nc3ccc(=[N+](C)C)cc-3sc2c1,NF-kB SEAP reporter activity,[2]; [9],2.38
same,NF-kB SEAP reporter activity,[2]; [10],2.29
CN(C)c1ccc2nc3ccc(=[N+](C)C)cc-3sc2c1 (library stock concentration (final ~1000-fold dilution): 10 mM),NF-kB SEAP reporter activity,[3]; agonist: LPS (TLR4) 0.1 ug/mL,2.45
same,NF-kB SEAP reporter activity,[3]; [4],2.01
same,NF-kB SEAP reporter activity,[3]; [5],1.23
same,NF-kB SEAP reporter activity,[3]; [6],1.33
COc1cc(/C=C/C(=O)N2CCC=CC2=O)cc(OC)c1OC (library stock concentration (final ~1000-fold dilution): 10 mM),NF-kB SEAP reporter activity,[1]; agonist: LPS (TLR4) 0.1 ug/mL,0.2
same,NF-kB SEAP reporter activity,[1]; [4],0.269
same,NF-kB SEAP reporter activity,[1]; [5],0.0785
same,NF-kB SEAP reporter activity,[1]; [6],0.14
same,NF-kB SEAP reporter activity,[3]; agonist: LPS (TLR4) 0.1 ug/mL,0.282
same,NF-kB SEAP reporter activity,[3]; [4],0.193
same,NF-kB SEAP reporter activity,[3]; [5],0.0749
same,NF-kB SEAP reporter activity,[3]; [6],0.152
COc1cc(/C=C/C(=O)N2CCC=CC2=O)cc(OC)c1OC,NF-kB SEAP reporter activity,[2]; [9],0.147
same,NF-kB SEAP reporter activity,[2]; [10],0.272
same,NF-kB SEAP reporter activity,[2]; [7],0.213
same,NF-kB SEAP reporter activity,[2]; [8],0.229
CCc1nc(-c2cccc(C)c2)c(-c2ccnc(NC(=O)c3ccccc3)c2)s1 (library stock concentration (final ~1000-fold dilution): 10 mM),NF-kB SEAP reporter activity,[1]; agonist: LPS (TLR4) 0.1 ug/mL,2.52
same,NF-kB SEAP reporter activity,[1]; [4],0.741
same,NF-kB SEAP reporter activity,[1]; [5],0.683
same,NF-kB SEAP reporter activity,[1]; [6],0.652
CCc1nc(-c2cccc(C)c2)c(-c2ccnc(NC(=O)c3ccccc3)c2)s1,NF-kB SEAP reporter activity,[2]; [7],0.743
same,NF-kB SEAP reporter activity,[2]; [8],1.76
O=C(CCCCCCC(=O)NO)NO,NF-kB SEAP reporter activity,[2]; [8],2.57
O=C(CCCCCCC(=O)NO)NO (library stock concentration (final ~1000-fold dilution): 10 mM),NF-kB SEAP reporter activity,[1]; agonist: LPS (TLR4) 0.1 ug/mL,3.77
FC(F)(F)c1ccc(CNc2ccc(Cc3c[nH]c4ncc(Cl)cc34)cn2)cn1 (library stock concentration (final ~1000-fold dilution): 10 mM),NF-kB SEAP reporter activity,[1]; agonist: LPS (TLR4) 0.1 ug/mL,0.484
same,NF-kB SEAP reporter activity,[1]; [4],0.335
same,NF-kB SEAP reporter activity,[1]; [5],0.346
same,NF-kB SEAP reporter activity,[1]; [6],0.212
FC(F)(F)c1ccc(CNc2ccc(Cc3c[nH]c4ncc(Cl)cc34)cn2)cn1,NF-kB SEAP reporter activity,[2]; [7],1.05
same,NF-kB SEAP reporter activity,[2]; [8],0.645
C#CCN(C)Cc1ccccc1.Cl (library stock concentration (final ~1000-fold dilution): 10 mM),NF-kB SEAP reporter activity,[1]; agonist: LPS (TLR4) 0.1 ug/mL,0.896
same,NF-kB SEAP reporter activity,[1]; [4],0.98
same,NF-kB SEAP reporter activity,[1]; [5],0.887
same,NF-kB SEAP reporter activity,[1]; [6],1.16
C#CCN(C)Cc1ccccc1.Cl,NF-kB SEAP reporter activity,[2]; [7],1.15
same,NF-kB SEAP reporter activity,[2]; [8],0.987
Cc1ccnc2c1NC(=O)c1cccnc1N2C1CC1 (library stock concentration (final ~1000-fold dilution): 10 mM),NF-kB SEAP reporter activity,[1]; agonist: LPS (TLR4) 0.1 ug/mL,1.29
same,NF-kB SEAP reporter activity,[1]; [4],1.1
same,NF-kB SEAP reporter activity,[1]; [5],1.02
same,NF-kB SEAP reporter activity,[1]; [6],1.04
Cc1ccnc2c1NC(=O)c1cccnc1N2C1CC1,NF-kB SEAP reporter activity,[2]; [7],0.896
same,NF-kB SEAP reporter activity,[2]; [8],0.88
Cl.O=S(=O)(c1cccc2c(I)cccc12)N1CCCNCC1 (library stock concentration (final ~1000-fold dilution): 10 mM),NF-kB SEAP reporter activity,[1]; agonist: LPS (TLR4) 0.1 ug/mL,0.746
same,NF-kB SEAP reporter activity,[1]; [4],0.722
same,NF-kB SEAP reporter activity,[1]; [5],0.626
same,NF-kB SEAP reporter activity,[1]; [6],0.568
Cl.O=S(=O)(c1cccc2c(I)cccc12)N1CCCNCC1,NF-kB SEAP reporter activity,[2]; [7],0.797
same,NF-kB SEAP reporter activity,[2]; [8],1.12
Cc1[nH]c(=O)c(C#N)cc1-c1ccncc1,NF-kB SEAP reporter activity,[2]; [7],0.968
same,NF-kB SEAP reporter activity,[2]; [8],1.02
Cc1[nH]c(=O)c(C#N)cc1-c1ccncc1 (library stock concentration (final ~1000-fold dilution): 10 mM),NF-kB SEAP reporter activity,[1]; agonist: LPS (TLR4) 0.1 ug/mL,1.01
same,NF-kB SEAP reporter activity,[1]; [4],1.02
same,NF-kB SEAP reporter activity,[1]; [5],0.996
same,NF-kB SEAP reporter activity,[1]; [6],1.11
CS(=O)(=O)c1ccc(C2=C(c3ccccc3)C(=O)OC2)cc1 (library stock concentration (final ~1000-fold dilution): 10 mM),NF-kB SEAP reporter activity,[1]; agonist: LPS (TLR4) 0.1 ug/mL,1.27
same,NF-kB SEAP reporter activity,[1]; [4],1.12
same,NF-kB SEAP reporter activity,[1]; [5],1.1
same,NF-kB SEAP reporter activity,[1]; [6],1.08
CS(=O)(=O)c1ccc(C2=C(c3ccccc3)C(=O)OC2)cc1,NF-kB SEAP reporter activity,[2]; [7],1.14
same,NF-kB SEAP reporter activity,[2]; [8],0.957

# From the supplement of paper PMC10037445
